According to publication PMC11960969, “Mdga2 deficiency leads to an aberrant activation of BDNF/TrkB signaling that underlies autism-relevant synaptic and behavioral changes in mice” (PLOS Biology, 2025):
No constants are given. Whether binding was seen depends on the method and setting. In cells and extracts the contact can be indirect. Some results given as binding are weak or reduced against the parent protein; the word gives no strength. For part of these data: Tags and fused reporters may be left off the sequences shown. Values belong to the binder of their own block, whether it stands above or below them.

Protein sequences, listed by entry. Tags and fused reporters are not part of them. Residues count along the entry.
UniProt Q16620, residues 32-822: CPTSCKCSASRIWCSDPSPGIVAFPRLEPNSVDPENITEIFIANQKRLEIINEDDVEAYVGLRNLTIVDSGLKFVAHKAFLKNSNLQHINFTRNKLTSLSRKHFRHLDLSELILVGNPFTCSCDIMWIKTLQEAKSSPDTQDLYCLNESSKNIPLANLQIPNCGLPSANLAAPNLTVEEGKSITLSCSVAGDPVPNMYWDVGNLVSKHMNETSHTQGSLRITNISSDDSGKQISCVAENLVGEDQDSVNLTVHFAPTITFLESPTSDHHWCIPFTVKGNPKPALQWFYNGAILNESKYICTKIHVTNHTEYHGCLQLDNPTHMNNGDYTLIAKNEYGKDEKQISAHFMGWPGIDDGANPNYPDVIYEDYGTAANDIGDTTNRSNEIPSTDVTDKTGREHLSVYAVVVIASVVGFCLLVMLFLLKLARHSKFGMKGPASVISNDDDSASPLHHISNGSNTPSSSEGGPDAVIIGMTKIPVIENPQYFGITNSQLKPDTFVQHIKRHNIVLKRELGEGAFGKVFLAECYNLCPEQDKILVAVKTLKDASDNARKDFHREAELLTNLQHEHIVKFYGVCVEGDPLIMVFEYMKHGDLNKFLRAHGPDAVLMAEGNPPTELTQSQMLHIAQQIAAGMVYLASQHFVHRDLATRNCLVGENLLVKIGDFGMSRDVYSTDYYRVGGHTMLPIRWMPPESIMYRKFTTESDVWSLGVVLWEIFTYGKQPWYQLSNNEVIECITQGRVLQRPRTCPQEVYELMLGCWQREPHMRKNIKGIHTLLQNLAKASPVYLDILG
UniProt P15209, residues 32-821: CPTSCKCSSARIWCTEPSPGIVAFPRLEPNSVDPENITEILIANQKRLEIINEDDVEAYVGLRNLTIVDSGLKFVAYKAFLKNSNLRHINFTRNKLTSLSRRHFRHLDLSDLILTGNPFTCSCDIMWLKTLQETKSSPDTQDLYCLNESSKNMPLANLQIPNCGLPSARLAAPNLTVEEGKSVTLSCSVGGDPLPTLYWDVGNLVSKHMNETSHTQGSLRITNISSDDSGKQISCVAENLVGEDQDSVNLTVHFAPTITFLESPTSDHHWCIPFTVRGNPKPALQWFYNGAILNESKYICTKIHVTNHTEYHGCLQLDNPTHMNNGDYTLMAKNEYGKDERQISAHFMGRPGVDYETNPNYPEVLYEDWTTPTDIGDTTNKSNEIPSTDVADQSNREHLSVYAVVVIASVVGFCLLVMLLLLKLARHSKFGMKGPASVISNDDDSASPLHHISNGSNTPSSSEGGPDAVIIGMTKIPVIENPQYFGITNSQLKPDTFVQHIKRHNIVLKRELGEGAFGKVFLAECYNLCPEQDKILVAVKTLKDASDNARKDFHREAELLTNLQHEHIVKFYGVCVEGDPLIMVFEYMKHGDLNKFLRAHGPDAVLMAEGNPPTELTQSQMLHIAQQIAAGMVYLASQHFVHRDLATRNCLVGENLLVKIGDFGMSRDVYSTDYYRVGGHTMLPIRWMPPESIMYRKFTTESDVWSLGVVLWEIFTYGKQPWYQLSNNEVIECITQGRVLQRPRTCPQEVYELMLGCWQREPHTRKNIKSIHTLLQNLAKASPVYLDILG

How the values were obtained:
[1] = molecular target: T1, MDGA2 (MAM domain containing glycosylphosphatidylinositol anchor 2), endogenous mouse (mouse (endogenous in mouse brain)) (UniProt P60755); test: co-IP; WT mouse brain lysates, IP with an anti-MDGA2 antibody or control IgG, immunoblot
T1 sequence: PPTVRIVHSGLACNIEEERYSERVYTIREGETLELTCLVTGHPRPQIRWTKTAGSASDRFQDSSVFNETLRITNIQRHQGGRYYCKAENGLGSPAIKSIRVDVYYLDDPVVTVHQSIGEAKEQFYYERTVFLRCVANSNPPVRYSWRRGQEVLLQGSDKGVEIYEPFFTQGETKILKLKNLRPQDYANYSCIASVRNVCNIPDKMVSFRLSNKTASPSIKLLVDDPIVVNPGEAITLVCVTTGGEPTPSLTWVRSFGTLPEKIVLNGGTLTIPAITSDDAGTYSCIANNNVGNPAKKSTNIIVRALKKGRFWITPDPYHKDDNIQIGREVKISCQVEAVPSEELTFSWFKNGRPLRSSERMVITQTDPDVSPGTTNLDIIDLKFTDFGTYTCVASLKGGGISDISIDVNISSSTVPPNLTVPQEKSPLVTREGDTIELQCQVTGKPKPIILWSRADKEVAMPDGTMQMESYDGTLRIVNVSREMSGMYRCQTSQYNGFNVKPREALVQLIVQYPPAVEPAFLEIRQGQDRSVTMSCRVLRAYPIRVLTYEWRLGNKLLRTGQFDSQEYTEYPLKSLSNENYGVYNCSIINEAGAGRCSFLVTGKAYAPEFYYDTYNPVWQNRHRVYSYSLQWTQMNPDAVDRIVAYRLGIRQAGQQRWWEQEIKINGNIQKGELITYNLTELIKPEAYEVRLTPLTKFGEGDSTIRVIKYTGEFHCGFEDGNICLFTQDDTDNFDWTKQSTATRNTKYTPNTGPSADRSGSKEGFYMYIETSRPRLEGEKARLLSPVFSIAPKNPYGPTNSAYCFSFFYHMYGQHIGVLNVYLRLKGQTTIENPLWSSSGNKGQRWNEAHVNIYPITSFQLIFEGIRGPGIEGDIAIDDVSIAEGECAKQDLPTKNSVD

[2] = molecular target: Flag-tagged full-length human TrkB (TrkB-Flag) (human) (UniProt Q16620); test: co-IP; competition: P2 peptide (0.1 or 1 μM, 16 h) added to Mdga2+/- neurons transfected with TrkB-Flag; read-out is the co-IP of TrkB-Flag and BDNF; only the binder purified
[3] = molecular target: TrkB (tyrosine kinase B receptor), endogenous mouse (mouse (endogenous in mouse brain)) (UniProt P15209); test: co-IP; competition in vivo: 1 μg MDGA2-P2 peptide injected into both hippocampi once per day for 1 week; read-out is the co-IP of TrkB with BDNF from hippocampal lysates; only the binder purified
[4] = molecular target: Flag-tagged full-length human TrkB (TrkB-Flag) (human) (UniProt Q16620); test: co-IP; HEK293T cells co-transfected with Flag-tagged TrkB constructs and GFP-tagged MDGA2 constructs; lysates IP with control IgG, anti-Flag or anti-GFP, immunoblot
[5] = molecular target: Flag-tagged full-length human TrkB (TrkB-Flag) (human) (UniProt Q16620); test: co-IP; mouse primary neurons transfected with GFP-tagged MDGA2, V930I or ΔMAM (text: co-transfected with TrkB); lysates IP with GFP or an anti-TrkB antibody, immunoblot
[6] = molecular target: TrkB (tyrosine kinase B receptor), endogenous mouse (mouse (endogenous in mouse brain)) (UniProt P15209); test: co-IP; lysates of mouse primary neurons (Het, KO and WT littermates; WT neurons transfected with GFP, MDGA2-GFP or ΔMAM-GFP), IP with IgG or an anti-BDNF antibody, immunoblot for TrkB

binding [1]: no binding
B1: immature BDNF (ImBDNF), endogenous mouse (ligand, UniProt P21237 19-249)
chain: APMKEVNVHGQGNLAYPGVRTHGTLESVNGPRAGSRGLTTTSLADTFEHVIEELLDEDQKVRPNEENHKDADLYTSRVMLSSQVPLEPPLLFLLEEYKNYLDAANMSMRVRRHSDPARRGELSVCDSISEWVTAADKKTAVDMSGGTVTVLEKVPVSKGQLKQYFYETKCNPMGYTKEGCRGIDKRHWNSQCRTTQSYVRALTMDSKKRIGWRFIRIDTSCVCTLTIKRGR

binding [2]: binds | binding [3]: binds
Binder: KARLLSPVFSIAPKNPYGPTNT [MDGA2-P2 peptide (aa 812-833), label not stated]

binding [4]: binds | binding [5]: binds | binding [6]: binds
B2: GFP-tagged full-length human MDGA2 (MDGA2-GFP) (protein, UniProt Q7Z553 26-931)
chain: PPTVRIVHSGLACNIEEERYSERVYTIREGETLELTCLVTGHPRPQIRWTKTAGSASDRFQDSSVFNETLRITNIQRHQGGRYYCKAENGLGSPAIKSIRVDVYYLDDPVVTVHQSIGEAKEQFYYERTVFLRCVANSNPPVRYSWRRGQEVLLQGSDKGVEIYEPFFTQGETKILKLKNLRPQDYANYSCIASVRNVCNIPDKMVSFRLSNKTASPSIKLLVDDPIVVNPGEAITLVCVTTGGEPAPSLTWVRSFGTLPEKTVLNGGTLTIPAITSDDAGTYSCIANNNVGNPAKKSTNIIVRALKKGRFWITPDPYHKDDNIQIGREVKISCQVEAVPSEELTFSWFKNGRPLRSSERMVITQTDPDVSPGTTNLDIIDLKFTDFGTYTCVASLKGGGISDISIDVNISSSTVPPNLTVPQEKSPLVTREGDTIELQCQVTGKPKPIILWSRADKEVAMPDGSMQMESYDGTLRIVNVSREMSGMYRCQTSQYNGFNVKPREALVQLIVQYPPAVEPAFLEIRQGQDRSVTMSCRVLRAYPIRVLTYEWRLGNKLLRTGQFDSQEYTEYAVKSLSNENYGVYNCSIINEAGAGRCSFLVTGKAYAPEFYYDTYNPVWQNRHRVYSYSLQWTQMNPDAVDRIVAYRLGIRQAGQQRWWEQEIKINGNIQKGELITYNLTELIKPEAYEVRLTPLTKFGEGDSTIRVIKYSAPVNPHLREFHCGFEDGNICLFTQDDTDNFDWTKQSTATRNTKYTPNTGPNADRSGSKEGFYMYIETSRPRLEGEKARLLSPVFSIAPKNPYGPTNTAYCFSFFYHMYGQHIGVLNVYLRLKGQTTIENPLWSSSGNKGQRWNEAHVNIYPITSFQLIFEGIRGPGIEGDIAIDDVSIAEGECAKQDLATKNSVD
